Reference: PMC4336329 (PLoS ONE, 2015)
Screen size: about 310,000 compounds; about 14,000 (4.5%) showed an effect of 50% or more. The effect is printed as a negative number. The list shows a part of the results.

Target: human ether-à-go-go-related gene (hERG) potassium channel (human, UniProt Q12809)
Experiment: primary screen, population patch clamp on CHO cells stably expressing hERG
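Further: peak tail current of the secondary pulse compared with the same well before compound.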

Sequence of human ether-à-go-go-related gene (hERG) potassium channel (Q12809 whole entry, looked up): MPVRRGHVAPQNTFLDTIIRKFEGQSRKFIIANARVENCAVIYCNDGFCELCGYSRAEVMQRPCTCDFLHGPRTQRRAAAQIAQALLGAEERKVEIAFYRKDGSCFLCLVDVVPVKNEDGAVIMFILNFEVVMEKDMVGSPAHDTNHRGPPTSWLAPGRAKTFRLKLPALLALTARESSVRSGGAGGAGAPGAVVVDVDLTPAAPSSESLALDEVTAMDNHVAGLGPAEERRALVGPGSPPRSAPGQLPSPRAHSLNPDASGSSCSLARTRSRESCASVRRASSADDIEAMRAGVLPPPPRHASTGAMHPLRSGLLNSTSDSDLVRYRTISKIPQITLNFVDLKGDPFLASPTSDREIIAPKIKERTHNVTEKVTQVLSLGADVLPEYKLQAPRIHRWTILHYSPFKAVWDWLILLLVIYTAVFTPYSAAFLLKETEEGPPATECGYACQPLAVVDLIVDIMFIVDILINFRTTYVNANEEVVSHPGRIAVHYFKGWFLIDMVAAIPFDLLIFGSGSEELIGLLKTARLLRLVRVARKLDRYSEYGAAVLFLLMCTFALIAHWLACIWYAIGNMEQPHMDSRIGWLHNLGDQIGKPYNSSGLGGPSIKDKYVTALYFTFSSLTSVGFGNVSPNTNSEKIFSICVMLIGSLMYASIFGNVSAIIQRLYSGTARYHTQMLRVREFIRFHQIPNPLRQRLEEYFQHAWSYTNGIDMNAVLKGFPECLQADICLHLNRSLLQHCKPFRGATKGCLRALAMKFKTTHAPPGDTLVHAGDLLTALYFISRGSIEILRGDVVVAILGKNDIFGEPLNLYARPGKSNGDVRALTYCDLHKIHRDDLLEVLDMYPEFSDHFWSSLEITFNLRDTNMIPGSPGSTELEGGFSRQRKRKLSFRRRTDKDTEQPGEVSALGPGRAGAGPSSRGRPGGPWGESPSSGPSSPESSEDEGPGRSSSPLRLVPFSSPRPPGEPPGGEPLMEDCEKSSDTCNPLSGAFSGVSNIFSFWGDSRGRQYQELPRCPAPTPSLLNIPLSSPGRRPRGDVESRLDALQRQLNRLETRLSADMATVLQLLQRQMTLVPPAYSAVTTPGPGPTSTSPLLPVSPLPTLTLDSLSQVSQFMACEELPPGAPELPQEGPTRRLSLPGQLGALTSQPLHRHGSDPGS

Question: With `CC(C)CCNC(=O)c1cc(C(=O)c2cc(Br)ccc2O)cn(CCC(C)C)c1=O` as the compound, how does the “hERG current change (%, negative = inhibition) at 10uM” value read?
Answer: 16.8%

Question: How did the “hERG current change (%, negative = inhibition) at 10uM” value turn out when `CCC(C)(C)n1nnnc1C(c1ccccn1)N1CCOCC1` (stereo not drawn) was run?
Answer: -6.99%

Question: `COc1ccc(CN2C(=NC(=O)C3CCCO3)SC3CS(=O)(=O)CC32)cc1OC` (stereo not drawn) was tested. Which “hERG current change (%, negative = inhibition) at 10uM” value did it give?
Answer: 16.8%

Question: Which “hERG current change (%, negative = inhibition) at 10uM” value does the source give for `CCOc1ncccc1C(=O)N(CC)CC(=O)NCc1ccc(F)cc1` here?
Answer: 7.12%

Question: `COc1ccccc1-c1nnc(SCC(=O)c2c(N)n(C3CC3)c(=O)[nH]c2=O)n1C` was tested. Which “hERG current change (%, negative = inhibition) at 10uM” value did it give?
Answer: 9.95%

Question: For `COC(=O)Cn1cc(C(=O)C(F)(F)F)c2ccccc21`, which “hERG current change (%, negative = inhibition) at 10uM” value is on record?
Answer: 20%

Question: Which “hERG current change (%, negative = inhibition) at 10uM” value does the source give for `CCOc1cc(S(=O)(=O)NCc2ccccn2)ccc1Cl` here?
Answer: -11.5%

Question: Which “hERG current change (%, negative = inhibition) at 10uM” value does the source give for `CN(C)CCNC(=O)C(C(=O)c1ccccc1)n1ccccc1=O.Cl` (stereo not drawn) here?
Answer: 24.2%

Question: With `Cl.OCCCCCNc1ncnc2ccccc12` as the compound, how does the “hERG current change (%, negative = inhibition) at 10uM” value read?
Answer: -0.162%

Question: `COc1ccccc1-c1nn(-c2ccccc2)cc1C(=O)N1CCN(C(=O)c2ccco2)CC1` was tested. Which “hERG current change (%, negative = inhibition) at 10uM” value did it give?
Answer: -36%

Question: For `Cc1cccc(NC(=O)c2ccc(NC(C)c3ccccc3)c([N+](=O)[O-])c2)n1` (stereo not drawn), which “hERG current change (%, negative = inhibition) at 10uM” value is on record?
Answer: 2.29%

Question: For `NNC(=O)CN1CCN(c2ncc(C(F)(F)F)cc2Cl)CC1`, which “hERG current change (%, negative = inhibition) at 10uM” value is on record?
Answer: -3.54%

Question: `CCCC(=O)NC(Nc1ccc(S(=O)(=O)Nc2cc(C)on2)cc1)(C(F)(F)F)C(F)(F)F` was tested. Which “hERG current change (%, negative = inhibition) at 10uM” value did it give?
Answer: 17.2%

Question: With `CCn1nnnc1SCCSc1nnnn1CC` as the compound, how does the “hERG current change (%, negative = inhibition) at 10uM” value read?
Answer: -5.72%

Question: For `CSc1cccc(NC(=S)NN(C)C)c1`, which “hERG current change (%, negative = inhibition) at 10uM” value is on record?
Answer: 15.5%

Question: Which “hERG current change (%, negative = inhibition) at 10uM” value does the source give for `COc1ccc(Br)cc1S(=O)(=O)n1ccnc1C` here?
Answer: -1.19%

Question: How did the “hERG current change (%, negative = inhibition) at 10uM” value turn out when `NC(=O)Cc1ccc(C(=O)c2ccccc2)s1` was run?
Answer: 7.3%

Question: `COc1ccc(-c2nn(-c3ccccc3)cc2C(=O)NCC(c2cccs2)N2CCOCC2)cc1` (stereo not drawn) was tested. Which “hERG current change (%, negative = inhibition) at 10uM” value did it give?
Answer: -30.2%

Question: Which “hERG current change (%, negative = inhibition) at 10uM” value does the source give for `COc1cc(/C=C/C(=O)OCC(=O)N2CCN(C(=O)c3ccco3)CC2)ccc1O` here?
Answer: 2.55%

Question: Which “hERG current change (%, negative = inhibition) at 10uM” value does the source give for `CC(=O)Oc1ccc2c(=O)oc(-c3ccc([N+](=O)[O-])cc3)nc2c1` here?
Answer: 1.56%

Question: `CC(C)(C)c1nnc(SCC(=O)c2ccccc2)n(N)c1=O` was tested. Which “hERG current change (%, negative = inhibition) at 10uM” value did it give?
Answer: -3.91%

Question: How did the “hERG current change (%, negative = inhibition) at 10uM” value turn out when `CNc1cncc(C(=O)O)c1` was run?
Answer: 7.43%

Question: Which “hERG current change (%, negative = inhibition) at 10uM” value does the source give for `CCOC(=O)c1c(N)sc(C(=O)N2CCOCC2)c1C` here?
Answer: 1.47%

Question: How did the “hERG current change (%, negative = inhibition) at 10uM” value turn out when `CC1=NOC(=O)/C1=C\c1ccc(-c2cc(Cl)ccc2Cl)o1` was run?
Answer: 19.1%

Question: For `CN(C)Cc1ccc(-c2nc3cccc4c3n2CCNC4=O)cc1`, which “hERG current change (%, negative = inhibition) at 10uM” value is on record?
Answer: -12.9%

Question: With `CC(=O)Nc1ccc(S(=O)(=O)N2CCC(C(=O)NCCC(=O)NCc3ccccc3)CC2)cc1` as the compound, how does the “hERG current change (%, negative = inhibition) at 10uM” value read?
Answer: 10.1%

Question: Which “hERG current change (%, negative = inhibition) at 10uM” value does the source give for `C#CCNC(=O)C1=C[C@H](c2ccc(C#C)cc2)C[C@H](OCc2ccc(CO)cc2)O1` here?
Answer: -24.2%

Question: Which “hERG current change (%, negative = inhibition) at 10uM” value does the source give for `CN(C)c1ccc(/C=N/Nc2cc(N3CCOCC3)nc(N3CCOCC3)n2)cc1` here?
Answer: -4.78%

Question: For `CCc1ccc(CC2(O)CC(C)N(C)CC2C)cc1` (stereo not drawn), which “hERG current change (%, negative = inhibition) at 10uM” value is on record?
Answer: -29.7%

Question: For `COC(=O)c1scc(C)c1S(=O)(=O)Nc1ccc(C)cc1`, which “hERG current change (%, negative = inhibition) at 10uM” value is on record?
Answer: 15.3%

Question: For `Cc1cc(C(=S)N2CCOCC2)c(C)n1-c1ccc(F)cc1`, which “hERG current change (%, negative = inhibition) at 10uM” value is on record?
Answer: -12.6%

Question: `COc1cccc(N2CCN(CC(=O)NCc3cccs3)CC2)c1` was tested. Which “hERG current change (%, negative = inhibition) at 10uM” value did it give?
Answer: -3.18%

Question: With `COc1cc(CC(=O)OCC(=O)Nc2cc([N+](=O)[O-])ccc2Cl)cc(OC)c1OC` as the compound, how does the “hERG current change (%, negative = inhibition) at 10uM” value read?
Answer: -50%

Question: For `Cc1cccc(-c2nnc(SCC(=O)Nc3cc(C)on3)n2C)c1`, which “hERG current change (%, negative = inhibition) at 10uM” value is on record?
Answer: 1.68%

Question: With `Cc1cccc(S(=O)(=O)c2c(C)cc(C)nc2Cl)c1` as the compound, how does the “hERG current change (%, negative = inhibition) at 10uM” value read?
Answer: -4.43%

Question: Which “hERG current change (%, negative = inhibition) at 10uM” value does the source give for `Cn1nnc2cc(NC(=O)Nc3cccc(Cl)c3)ccc21` here?
Answer: 7.8%

Question: `O=C1CC(c2cccc(F)c2)c2c(c3ccccc3[nH]c2=O)O1` (stereo not drawn) was tested. Which “hERG current change (%, negative = inhibition) at 10uM” value did it give?
Answer: 16%

Question: With `COc1cc(NC(=O)c2ccc(NC3=NC4CS(=O)(=O)CC4S3)cc2)cc(OC)c1` (stereo not drawn) as the compound, how does the “hERG current change (%, negative = inhibition) at 10uM” value read?
Answer: -3.08%

Question: With `Cc1ccc(S(=O)(=O)CC(=O)c2cc(C)c(OC(=O)N(C)C)c(C)c2)cc1` as the compound, how does the “hERG current change (%, negative = inhibition) at 10uM” value read?
Answer: 27.7%

Question: For `O=C(N/N=C/c1ccc(OCc2ccccc2)cc1)c1ccco1`, which “hERG current change (%, negative = inhibition) at 10uM” value is on record?
Answer: 13.3%

Question: Which “hERG current change (%, negative = inhibition) at 10uM” value does the source give for `COC(=O)CS(=O)(=O)c1ccc2c(c1)CC(=O)N2` here?
Answer: -10.5%

Question: `CCC(C(=O)Nc1cc(OC)c(NC(=O)c2ccccc2)cc1OC)c1ccccc1` (stereo not drawn) was tested. Which “hERG current change (%, negative = inhibition) at 10uM” value did it give?
Answer: 14.1%

Question: `CC1(C)CC(=O)C2=C(C1)NC(=O)CC2c1ccc(N(CCC#N)CCC#N)cc1` (stereo not drawn) was tested. Which “hERG current change (%, negative = inhibition) at 10uM” value did it give?
Answer: 17.3%

Question: With `CCSc1ccccc1C(=O)NCCc1ccccc1` as the compound, how does the “hERG current change (%, negative = inhibition) at 10uM” value read?
Answer: 40%

Question: Which “hERG current change (%, negative = inhibition) at 10uM” value does the source give for `C/C=C(/C)C(=O)OC1c2c(ccc3ccc(=O)oc23)OC(C)(C)C1OC(C)=O` (stereo not drawn) here?
Answer: -71.8%
